Out of some 310,000 compounds screened, about 2,200 (0.71%) showed an effect of 50% or more. The effect is printed as a negative number. Some of the results follow.

The record followed here is paper PMC4336329 (PLoS ONE, 2015).

This test deals with human ether-à-go-go-related gene (hERG) potassium channel (human, UniProt Q12809). Nature of the test: primary screen, population patch clamp on CHO cells stably expressing hERG.
Sequence of human ether-à-go-go-related gene (hERG) potassium channel (Q12809 whole entry, looked up): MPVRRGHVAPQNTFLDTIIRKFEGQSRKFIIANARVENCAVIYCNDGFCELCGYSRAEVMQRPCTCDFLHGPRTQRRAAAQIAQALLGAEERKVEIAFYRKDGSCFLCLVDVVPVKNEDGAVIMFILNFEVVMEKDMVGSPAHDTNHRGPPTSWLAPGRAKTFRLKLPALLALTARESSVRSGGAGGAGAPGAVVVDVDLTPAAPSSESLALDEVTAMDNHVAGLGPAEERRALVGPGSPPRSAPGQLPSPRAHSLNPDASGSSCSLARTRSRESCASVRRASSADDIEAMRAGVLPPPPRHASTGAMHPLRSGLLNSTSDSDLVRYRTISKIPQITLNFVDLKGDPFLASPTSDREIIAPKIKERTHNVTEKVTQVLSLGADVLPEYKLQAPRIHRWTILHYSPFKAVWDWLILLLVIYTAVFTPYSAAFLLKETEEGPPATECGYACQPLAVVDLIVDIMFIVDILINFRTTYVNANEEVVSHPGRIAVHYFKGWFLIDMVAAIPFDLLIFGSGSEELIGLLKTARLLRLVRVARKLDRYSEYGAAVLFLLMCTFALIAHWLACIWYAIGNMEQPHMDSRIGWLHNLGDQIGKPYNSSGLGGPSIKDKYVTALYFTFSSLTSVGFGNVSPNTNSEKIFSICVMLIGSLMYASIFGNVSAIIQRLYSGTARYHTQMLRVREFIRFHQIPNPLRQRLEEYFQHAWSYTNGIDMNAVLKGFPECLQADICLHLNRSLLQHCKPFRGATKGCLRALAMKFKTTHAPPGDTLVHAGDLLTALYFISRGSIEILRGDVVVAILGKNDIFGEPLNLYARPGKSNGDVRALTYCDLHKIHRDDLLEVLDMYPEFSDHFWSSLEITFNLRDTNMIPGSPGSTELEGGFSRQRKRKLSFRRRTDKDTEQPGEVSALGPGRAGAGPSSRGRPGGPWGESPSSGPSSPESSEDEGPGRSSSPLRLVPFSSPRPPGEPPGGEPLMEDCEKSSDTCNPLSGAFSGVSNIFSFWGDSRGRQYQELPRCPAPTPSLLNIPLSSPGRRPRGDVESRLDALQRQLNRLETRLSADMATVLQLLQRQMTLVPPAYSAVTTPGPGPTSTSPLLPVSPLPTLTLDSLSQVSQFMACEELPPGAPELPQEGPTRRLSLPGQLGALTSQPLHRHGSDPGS
On to `COc1cccc2c1OCC1COc3c(c(=O)n(C)c(=O)n3C)C21` (stereo not shown), for which the “hERG current change (%, negative = inhibition) at 1uM” value is 6.39%.
To `Cc1cc(C(=O)CSc2n[nH]c(N)n2)c(C)n1-c1ccc2c(c1)OCO2` belongs -1.2%; to `O=C1CCCN1CCC1CCCCN1Cc1nc(-c2cnccn2)no1` (stereo not shown), 18.2%.
To `Cc1ccccc1NS(=O)(=O)c1cc(C(=O)Nc2cccnc2)ccc1C` belongs 15.7%; to `COc1cc2ccccc2cc1C(=O)OCc1nc2ccsc2c(=O)[nH]1`, 13.2%; to `O=[N+]([O-])c1ccccc1COc1ccc(Cl)c2cccnc12`, 11.5%.
Under `CC(O)CNc1nc2ccccc2n1CC(=O)N1CCN(Cc2ccccc2)CC1` (stereo not shown) stands 4%; under `O=C(Nc1ccc(Br)cn1)c1ccc2ccccc2c1`, 19.3%.
For `N#CC1=C(N)Oc2c(ccc3ccccc23)C1c1cccs1` (stereo not shown), the “hERG current change (%, negative = inhibition) at 1uM” value is on record as 3.42%.
Take `O=C(CN1CCN(C(=O)c2cccc(-n3cnnn3)c2)CC1)Nc1ccccc1Cl`: the “hERG current change (%, negative = inhibition) at 1uM” value is -92.9%.
Under `COCCN(C(=O)c1ccc(N2CCCC2=O)cc1)c1c(N)n(CC(C)C)c(=O)[nH]c1=O` stands 12%; under `CCOC(=O)c1sc2ncn(/N=C/c3ccc(O)c(OC)c3)c(=O)c2c1C`, 20.7%; under `Cc1cccc(NC(=O)CNC(=O)COC(=O)c2ccco2)c1C`, 9.41%.
To `Cc1c(CCO)c(=O)[nH]n1S(=O)(=O)c1ccccc1` belongs 14.2%; to `COc1ccccc1C(=O)NCC(=O)OCC(=O)c1cccc2ccccc12`, 10.6%.
With `CSc1cccc(NC(=O)c2ccccc2N(C)S(C)(=O)=O)c1`, the “hERG current change (%, negative = inhibition) at 1uM” value is reported as -6.82%.
Under `CC(C)(CNc1ccc([N+](=O)[O-])cc1Cl)N1CCOCC1` stands 8.79%; under `COC(=O)Nc1cc(C)n(-c2ccccc2)n1`, 12.9%; under `COCCn1nc2cc(C(=O)NCc3cc(C(F)(F)F)cc(C(F)(F)F)c3)ccc2c1OC`, 16%.
On to `CC(C)CCNC(=O)c1c[nH]c2ccc(S(=O)(=O)N3CCOCC3)cc2c1=O`, for which the “hERG current change (%, negative = inhibition) at 1uM” value was 10.4%.
Regarding `CCOc1ccc(S(=O)(=O)Nc2ccc(C(=O)NCC3CCCO3)cc2)cc1` (stereo not shown), the “hERG current change (%, negative = inhibition) at 1uM” value is -3.44%.
In the case of `NS(=O)(=O)c1ccc(CCNS(=O)(=O)c2ccc(Cl)cc2)cc1`, the “hERG current change (%, negative = inhibition) at 1uM” value is 7.98%.
Under `CCOc1ccc(-c2nnc(SCC(=O)N(CC)CC)n2N)cc1` stands 8.24%; under `CCc1cccc(CC)c1NC(=S)N1CC2CC(C1)c1cccc(=O)n1C2` (stereo not shown), 2.69%; under `CC(C)(C)NC(=O)NC(=O)COC(=O)CCC1CCCC1`, 13.8%.
In the case of `CC(C)C(=O)NCCc1nc(-c2ccc(Cl)cc2)no1`, the “hERG current change (%, negative = inhibition) at 1uM” value was determined as 8.04%.
Under `O=C(c1ccccc1)N1N=C(C(F)(F)F)CC1(O)c1ccc(F)cc1` (stereo not shown) stands 2.09%.
To `Cc1ccc(C(=O)COC(=O)c2cc(Cl)nc3ccccc23)cc1` belongs 2%; to `Cc1ccc(Cn2ncc3c(NCCCN(C)C)ncnc32)cc1`, 8.12%.
Regarding `COc1ccccc1CNc1ncnc2c1cnn2-c1ccccc1`, the “hERG current change (%, negative = inhibition) at 1uM” value amounted to 4.83%.
To `O=C(CCN1c2ccccc2Sc2ccccc21)Oc1ccccc1` belongs 7.66%; to `COc1ccc(S(=O)(=O)N2CCN(S(=O)(=O)c3ccc4c(c3)OCCO4)CC2)cc1`, 10.8%; to `O=C1CCCN1c1ccc(S(=O)(=O)Oc2cccc(Cl)c2)cc1[N+](=O)[O-]`, 11%.
Turning to `COc1ccc(S(=O)(=O)N(C)C)cc1NC(=O)Cc1c[nH]c2ccccc12`, the “hERG current change (%, negative = inhibition) at 1uM” value came out at 16.5%.
To `CCOc1ccc(NC(=O)C2CCCN(C(=O)NCc3ccccc3)C2)cc1` (stereo not shown) belongs 14%; to `Cc1onc(-c2ccccc2)c1C(=O)NCCCc1ccccc1`, 6.17%; to `Cc1cc(C(=O)OCC(=O)Nc2ccc(S(N)(=O)=O)cc2)c2ccccc2n1`, 9.07%.
To `COc1ccc(S(=O)(=O)N(C)CC(=O)N2CCCCC2)cc1Cl` belongs 12.3%; to `O=C(c1ccc(Cl)cc1)C1CCCN(C2CCSCC2)C1` (stereo not shown), -63.4%.
To `Cc1ccc(S(=O)(=O)NCC2CCC(C(=O)N3CCOCC3)CC2)cc1` (stereo not shown) belongs 9.78%.
With `Cc1ccc(S(=O)(=O)CCC(=O)OCC(=O)c2c[nH]c3ccccc23)cc1`, the “hERG current change (%, negative = inhibition) at 1uM” value is 12.7%.
Consider `COc1ccc(NS(=O)(=O)c2cc(NC(=O)/C=C/c3cccs3)ccc2N2CCOCC2)cc1`, for which the “hERG current change (%, negative = inhibition) at 1uM” value is reported as -0.951%.
As to `COc1ccccc1Nc1ncccc1C(=O)NCc1ccccc1`, the “hERG current change (%, negative = inhibition) at 1uM” value was 4.32%.
Under `O=C(CCc1nc2ccccc2c(=O)[nH]1)Nc1cc(Cl)ccc1N1CCCC1` stands 10%.
To `COc1cc(NC(=S)NCc2ccco2)cc(OC)c1OC` belongs 2.98%.
In the case of `COc1cccc(CNC(=O)C2CCN(S(=O)(=O)c3ccc4c(c3)NC(=O)C(C)S4)CC2)c1` (stereo not shown), the “hERG current change (%, negative = inhibition) at 1uM” value is 2.02%.
To `COc1cc(C(=O)NCCCNc2nc3c(C)cc(C)cc3cc2C#N)cc(OC)c1OC` belongs 17%; to `Cn1cc(Cl)c(-c2n[nH]c(=S)n2C2CCCCC2)n1`, 10.9%.
To `COCCn1c(N)c(N(Cc2ccccc2)C(=O)Cc2ccccc2F)c(=O)[nH]c1=O` belongs 8.7%.
To `CCCCN(C(=O)c1ccc(C)c(S(=O)(=O)N2CCOCC2)c1)c1c(N)n(CC(C)C)c(=O)[nH]c1=O` belongs -57.9%; to `O=[N+]([O-])c1cc(-c2ccc([As](=O)(O)O)cc2)ccc1[As](=O)(O)O`, 17.2%.
Regarding `CC(C)Nc1nc(NC(C)C)nc(Oc2ccc(OCc3ccccc3)nn2)n1`, the “hERG current change (%, negative = inhibition) at 1uM” value came to 9.27%.
Take `COc1ccc(Cc2nnc(NN)[nH]c2=O)cc1OC`: the “hERG current change (%, negative = inhibition) at 1uM” value is reported as 9.15%.
To `Cc1cccc(S(=O)(=O)Nc2ccc(-c3cn4ccccc4n3)cc2)c1` belongs 7.2%; to `COc1ccc(NC(=O)CN(C)C(=O)Cc2ccc3c(c2)OCCO3)cc1`, 13.8%; to `CCC(=O)N(CC)C1=C(O)c2ccccc2C(=O)C1=O`, 3.99%.
Under `C=CC(=O)NN(C)c1ncc(C(F)(F)F)cc1Cl` stands 19.6%; under `O=[N+]([O-])c1cccc2c([N+](=O)[O-])cccc12`, 10.5%.
On to `O=C(O)CCn1cc(/C=C/C(=O)c2ccc(Cl)cc2)c(-c2ccc(Br)cc2)n1`, for which the “hERG current change (%, negative = inhibition) at 1uM” value is reported as 11.7%.
In the case of `CN(C)C=O.COc1ccc(-n2cnnc2SCC(=O)Nc2ccccc2F)cc1`, the “hERG current change (%, negative = inhibition) at 1uM” value is reported as -1.5%.
To `CCCCS(=O)c1snnc1C` (stereo not shown) belongs 14.5%.
Under `O=C(COC(=O)c1ccccc1SCC(=O)N1CCCC1)Nc1ccccc1C(F)(F)F` stands -0.929%.
`Cc1cn(C2CC(OC(=O)C(C)C)C(CO)O2)c(=O)[nH]c1=O` (stereo not shown): the “hERG current change (%, negative = inhibition) at 1uM” value was 2.33%.
For the compound `CCOc1ccc(NC(=O)CC2C(=O)N(c3cccc(OC)c3)C(=O)N2C(C)C)cc1` (stereo not shown), the “hERG current change (%, negative = inhibition) at 1uM” value was determined as 4.4%.
Under `O=S(=O)(N1CCCCC1)n1nnc2ccccc21` stands -5.85%; under `Cn1c2ccccc2c2c(C(=O)N3CCN(c4ccc(F)cc4)CC3)cn(C3CCCC3)c(=O)c21`, 4.09%; under `O=C1Nc2ccc(NS(=O)(=O)c3cccs3)c3cccc1c23`, -7.05%.
Under `Cc1ccc(NC(=O)CSc2nc3[nH]c(=O)cc(O)c3s2)c(Br)c1` stands -2.88%.
Consider `COc1ccc(C2C/C(=N\O)C(C)(C)O2)cc1` (stereo not shown), for which the “hERG current change (%, negative = inhibition) at 1uM” value came out at 9.8%.
Under `COc1ccc(CCNS(=O)(=O)c2cn(C)cn2)cc1OC` stands 17.2%; under `CC(OC(=O)C1CC(O)CN1S(=O)(=O)c1ccccc1[N+](=O)[O-])C(=O)N1CCCCC1` (stereo not shown), 1.72%; under `Cc1cc2nc(-c3ccc(SCc4ccc(C(=O)O)cc4)nc3)[nH]c2cc1C`, 14.5%.
To `COc1ccc2cc(S(=O)(=O)c3ccccc3)c(=O)oc2c1` belongs 10.6%; to `COc1ccc(OC)c(NC(=O)Cn2cc(C(=O)c3ccco3)c3ccccc32)c1`, -7.04%.
Under `CCS(=O)(=O)N1CCN(C(C)CCc2ccccc2)CC1` (stereo not shown) stands 12.2%.
Take `C/C(=N\NC(=O)c1ccncc1)C12CC3CC(CC(C3)C1)C2`: the “hERG current change (%, negative = inhibition) at 1uM” value was 11.3%.
As for `Cc1cc(C(=O)CSc2ccc(F)cc2)cc(C)c1OC(=S)N(C)C`, the “hERG current change (%, negative = inhibition) at 1uM” value was found to be 5.31%.
Under `CN1CCN(C(=O)CCC(=O)NCc2ccc(F)cc2)CC1` stands 9.84%; under `COc1ccc(-c2nnn(CC(=O)NCc3cccs3)n2)cc1OC`, 24.3%.
As to `COCC(=O)NCc1ccc2c(c1)OCO2`, the “hERG current change (%, negative = inhibition) at 1uM” value is 3.34%.
Take `COc1cc(OC)cc(C(=O)N[C@H](C(=O)Nc2nc(-c3ccc(F)c(F)c3)cs2)C(C)C)c1`: the “hERG current change (%, negative = inhibition) at 1uM” value is given as 10.8%.
On to `O=C(Nc1nnc(C2=COCCO2)o1)c1ccc(Br)cc1`, for which the “hERG current change (%, negative = inhibition) at 1uM” value came to 10.1%.
To `Cc1ccc2[nH]c(C(=O)O)c(NC(=O)CN3CCN(c4cccc(C)c4C)CC3)c2c1.Cl` belongs 14.5%; to `S=C(Cc1ccc(-c2ccccc2)cc1)N1CCOCC1`, 3.74%.
To `O=C(N/N=C/c1cccc(OC(=O)N2CCOCC2)c1)c1cccs1` belongs 10.5%; to `CC(=O)c1ccc(NC(=O)c2ccc(NC(=O)CCS(=O)(=O)c3cccs3)cc2)cc1`, 12.5%; to `COCCN1Cc2cccc(C(=O)N3CCN(c4cc(C)ccc4C)CC3)c2C1=O`, 1.31%.
For `CN(C(=O)/C=C/c1cnc2ccccc2c1)C1CCCCC1`, the “hERG current change (%, negative = inhibition) at 1uM” value was 6.76%.
